About 5,800 (2.1%) of roughly 270,000 compounds were called active. Inconclusive results, whose numbers are uncertain, are shown with a selection of clear calls. The call rests on the fitted dose curve; in most records, active means well fitted inhibition curve with a large enough effect; inconclusive means small, poorly fitted or top-dose-only effect; inactive means flat fitted curve, though single readings scatter. Potencies of inconclusive entries are doubtful fits and often do not repeat.
The compounds below were run against Microtubule-associated protein tau (Homo sapiens) (UniProt P10636) (assay: qHTS for Inhibitors of Tau Fibril Formation, Thioflavin T Binding). Conditions: recombinant tau K18 P301L, heparin-induced fibrillization, ThT fluorescence; series mostly up to 57.4 µM; activity, negative = inhibition: at the top concentration.
Sequence of UniProt P10636 (P10636 whole entry, looked up): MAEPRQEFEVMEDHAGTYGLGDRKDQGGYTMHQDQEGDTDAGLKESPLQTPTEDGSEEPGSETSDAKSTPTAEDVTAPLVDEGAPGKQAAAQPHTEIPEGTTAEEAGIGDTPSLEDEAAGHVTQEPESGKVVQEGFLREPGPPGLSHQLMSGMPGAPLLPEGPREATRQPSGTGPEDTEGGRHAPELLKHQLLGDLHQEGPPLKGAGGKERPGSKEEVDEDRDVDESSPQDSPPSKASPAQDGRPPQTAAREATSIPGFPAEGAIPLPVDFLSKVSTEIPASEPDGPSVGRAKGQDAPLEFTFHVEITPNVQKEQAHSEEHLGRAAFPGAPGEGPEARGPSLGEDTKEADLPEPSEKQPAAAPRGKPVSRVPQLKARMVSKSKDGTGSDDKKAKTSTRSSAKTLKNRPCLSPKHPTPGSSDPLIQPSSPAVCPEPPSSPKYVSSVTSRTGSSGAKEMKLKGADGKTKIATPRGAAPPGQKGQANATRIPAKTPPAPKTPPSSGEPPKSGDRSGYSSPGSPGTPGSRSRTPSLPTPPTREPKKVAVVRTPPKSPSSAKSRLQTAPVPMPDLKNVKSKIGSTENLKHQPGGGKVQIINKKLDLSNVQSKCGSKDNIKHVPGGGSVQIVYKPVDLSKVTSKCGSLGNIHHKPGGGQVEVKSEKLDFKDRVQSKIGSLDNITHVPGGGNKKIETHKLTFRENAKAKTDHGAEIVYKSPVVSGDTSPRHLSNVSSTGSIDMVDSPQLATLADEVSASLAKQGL
In short: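 Fibril formation assay: tau K18 P301L at 15 uM with trace Alexa 594 label, heparin inducer 20 uM, pH 7 sodium acetate buffer, 37 C for 6 hr; endpoint ThT signal.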
For `CCOC(=O)c1cc(-c2ccc(OC)c(S(=O)(=O)NC3CCCCC3)c2)on1`, the “activity, negative = inhibition” value was inactive: 5.51%.
`COc1ccc(/C=N/NC(=O)c2nc(-c3ccccc3)n(-c3ccccc3)n2)cc1OC` was tested, and the Potency was inconclusive: 22.4 µM [inhibitor, partial curve].
In the case of `CC(=O)c1ccc(NC(=S)NNC(=O)c2ccncc2)cc1`, the Potency is reported as inconclusive: 31.6 µM [inhibitor, single point].
In the case of `CNC(=O)/C(C#N)=C/c1c(N(Cc2ccccc2)Cc2ccccc2)nc2ccccn2c1=O`, the Potency is reported as inconclusive: 17.8 µM [inhibitor, partial curve].
For `CN1CCC2(CC1)N=C(c1ccc(F)cc1)C(=S)N2C(=O)c1ccc(C(C)(C)C)cc1`, the Potency was inconclusive: 17.8 µM [inhibitor, single point].
For `CC1(C)CC(=O)C(CC(=O)Nc2ccc(S(N)(=O)=O)cc2)=C(O)C1`, the “activity, negative = inhibition” value was inactive: -9.65%.
`CC1=CC(=Nc2c(C)n(C)n(-c3ccccc3)c2=O)C=CC1=O` was tested, and the Potency was active: 3.16 µM.
With `Cc1ccc(-c2csc3nnc(SCC(=O)Nc4nsc(-c5ccccc5)n4)n23)cc1` the “activity, negative = inhibition” value was inactive: -11.8%.
`O=C1/C(=C\c2cccs2)Sc2ccc3ccccc3c21` was tested, and the Potency was active: 1 µM.
With `COc1ccccc1Nc1c2c(nc3ccc(NC(=O)c4ccc(OC)c(OC)c4)cc13)CCCC2` the Potency was active: 25.1 µM.
In the case of `O=c1cnnc(Nc2ccc(Nc3ccccc3)cc2)[nH]1`, the Potency is reported as inconclusive: 15.8 µM [inhibitor, partial curve].
For `COc1ccc(CCNC(=O)c2ccc3c(c2)CCN3S(=O)(=O)c2ccccc2)cc1OC`, the Potency was inconclusive: 39.8 µM [inhibitor, single point].
`CCOc1ccccc1NC(=O)Cn1c(=O)n(Cc2ccccc2)c(=O)c2c1c1cc(C)ccc1n2C` was tested, and the “activity, negative = inhibition” value was inactive: 8.83%.
For `CCC(C)(C)C1CCc2nc3ccccc3c(C(=O)OC(C)C(=O)Nc3c(C)n(C)n(-c4ccccc4)c3=O)c2C1` (stereo unspecified), the Potency was inconclusive: 20 µM [inhibitor, single point].
In the case of `CCOC(=O)COc1ccc(/C=C/[N+](=O)[O-])c(OCC(=O)OCC)c1`, the Potency is reported as inconclusive: 15.8 µM [inhibitor, partial curve].
In the case of `COc1nc(NCc2ccco2)nc(NC2CCCCC2)n1`, the “activity, negative = inhibition” value is reported as inactive: -15.1%.
In the case of `CC(C)(O)C#Cc1ccc(C(=O)N2CCN(c3ccc([N+](=O)[O-])cc3)CC2)cc1`, the Potency is reported as inconclusive: 15.8 µM [inhibitor, partial curve].
With `COc1ccc(NC(=O)c2sc3nc4c(cc3c2N)CCCCCC4)c(OC)c1` the Potency was inconclusive: 14.1 µM [inhibitor, partial curve].
In the case of `CCOC(=O)CSC1=C(C#N)C(c2ccc(F)cc2)C(C(C)=O)=C(C)N1` (stereo unspecified), the Potency is reported as inconclusive: 31.6 µM [inhibitor, single point].
`Cc1cc(Nc2cccc(Cl)c2)nc2ccc(NC(=O)Cc3ccc(Cl)cc3)cc12` was tested, and the Potency was inconclusive: 15.8 µM [inhibitor, partial curve].
With `Cc1ccc(Cl)cc1Nc1sc(C(=O)c2ccc(F)cc2)c(N)c1S(C)(=O)=O` the “activity, negative = inhibition” value was inactive: -12.5%.
`COC(=O)c1ccc(NC(=O)CN2CCOCC2)cc1` was tested, and the “activity, negative = inhibition” value was inactive: -12.6%.
In the case of `CCCCOC(=O)c1ccc(OC(=O)c2sc3ncn(Cc4ccccc4Cl)c(=O)c3c2C)cc1`, the “activity, negative = inhibition” value is reported as inactive: -9.76%.
With `O=C(c1ccc(F)cc1F)C1CCN(c2ccc([N+](=O)[O-])cn2)CC1` the Potency was inconclusive: 3.55 µM [inhibitor, full curve].
With `NC(=O)c1cc2ccccc2o/c1=N\NC(=O)c1ccco1` the “activity, negative = inhibition” value was inactive: -12.3%.
`CN1C2C=C3C(C#N)=C(N)C(C#N)(C#N)[C@@H](c4cccs4)C3C1CC2` (stereo partly specified) was tested, and the Potency was active: 20 µM.
In the case of `CCCCC(=O)O[C@H]1CC[C@H]2[C@@H]3CCc4cc(O)ccc4[C@H]3CC[C@]12C`, the Potency is reported as inconclusive: 1.58 µM [inhibitor, partial curve, poor fit].
With `COc1ccc(C2CC(=O)C(C=NCCCN3CCOCC3)=C(O)C2)cc1` (stereo unspecified) the “activity, negative = inhibition” value was inactive: -9.21%.
With `Oc1nc(-c2ccc(Cl)cc2)n2ccncc12` the Potency was inconclusive: 25.1 µM [inhibitor, single point].
For `Cc1nc2ccc(N=NC3=C(O)CC(C)(C)CC3=O)cc2s1`, the Potency was inconclusive: 17.8 µM [inhibitor, partial curve].
`O=C(Cc1cnc2ncnn2c1)N1CCc2c([nH]c3ccccc23)C1c1ccccc1F` (stereo unspecified) was tested, and the “activity, negative = inhibition” value was inactive: -13.2%.
With `Cc1ccc(Nc2nc(CSc3nnc(-c4ccncc4)n3-c3ccccc3C)cs2)cc1` the Potency was inconclusive: 15.8 µM [inhibitor, partial curve].
In the case of `CC1(C)CC(=O)C(C(C2=C(O)CC(C)(C)CC2=O)c2ccc([N+](=O)[O-])cc2)C(=O)C1` (stereo unspecified), the Potency is reported as inconclusive: 31.6 µM [inhibitor, single point].
For `Cc1cc(N)n2ncc(-c3ccc(Cl)cc3)c2n1`, the Potency was inconclusive: 12.6 µM [inhibitor, partial curve].
For `COC(=O)N[C@H](C[N+](=O)[O-])c1cccc(C)c1`, the “activity, negative = inhibition” value was inactive: 3.55%.
`COC(=O)c1c(/N=C/N(C)C)sc2c1CCN(c1ncc(C(F)(F)F)cc1Cl)C2` was tested, and the Potency was inconclusive: 39.8 µM [inhibitor, single point].

Reference: PubChem BioAssay AID1460 (National Center for Advancing Translational Sciences (NCATS), 2008)
Further: nearly all actives have a fitted effect of over 55% in size.
On the % scale 0 is the no-effect control and ±100 the full control effect; potency means the concentration at half of the fitted maximal effect; tags describe the fitted curve by direction and shape.
